{"source": "the supplement of paper PMC10126150", "note": "Sequences with one replicate were seen in a single cluster, so their values are uncertain.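 Also: ATP exposure 15 min at 22 °C before imaging.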", "data": [{"test_system": "ATP", "assay": "switch fluorescence ratio, 500 uM ATP over buffer (Cy3 cluster intensity, sum of 5 cycles each) (fold (ratio)); higher = stronger signal-on switching upon ATP binding; sequences stand for … in TCGTCGGCAGCGTCAGATGTGTATAAGAGACAGTTTTTTTTTTTTTTTTTTTTTTTTT…TC", "details": "aptamer strand: ATP DNA aptamer (quencher-CACCTGGGGGAGTATTGCGGAGGAAGG + anchor), 100 nM annealed; ATP concentration: 500 uM; one replicate", "outline": "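For every switch-domain sequence, the fluorescence ratio is the mean of per-cluster values, each being summed target-cycle Cy3 intensity over summed buffer-cycle Cy3 intensity. Clusters outside 100-1000 RFU were excluded. On a modified Illumina MiSeq flow-cell, the Cy3-labelled switching-strand clusters were annealed to 100 nM quencher-labelled ATP aptamer, imaged in selection buffer and then after 15 min with 500 uM ATP at 22 °C. Five such cycles were run, with NaOH stripping and re-annealing between them.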", "values": [{"sequence": "TAGTGAAGGT", "switch fluorescence ratio": 1}, {"sequence": "TAGTGACCAG", "switch fluorescence ratio": 1.01}, {"sequence": "TAGTGCAAGC", "switch fluorescence ratio": 1.01}, {"sequence": "TAGTGCATTA", "switch fluorescence ratio": 1.05}, {"sequence": "TAGTGGACCG", "switch fluorescence ratio": 1.08}, {"sequence": "TAGTGGCCCG", "switch fluorescence ratio": 0.979}, {"sequence": "TAGTGGTATT", "switch fluorescence ratio": 1}, {"sequence": "TAGTGTTCGA", "switch fluorescence ratio": 1.02}, {"sequence": "TAGTGTTTTC", "switch fluorescence ratio": 0.969}, {"sequence": "TAGTTACAC", "switch fluorescence ratio": 1.02}, {"sequence": "TAGTTACGTA", "switch fluorescence ratio": 1.11}, {"sequence": "TAGTTACTAA", "switch fluorescence ratio": 1}, {"sequence": "TAGTTAGTCG", "switch fluorescence ratio": 0.942}, {"sequence": "TAGTTAGTCT", "switch fluorescence ratio": 1.01}, {"sequence": "TAGTTATCC", "switch fluorescence ratio": 0.977}, {"sequence": "TAGTTCAAGG", "switch fluorescence ratio": 1.05}, {"sequence": "TAGTTCCGAG", "switch fluorescence ratio": 1.18}, {"sequence": "TAGTTGGGTC", "switch fluorescence ratio": 1.03}, {"sequence": "TAGTTTACC", "switch fluorescence ratio": 1.02}, {"sequence": "TAGTTTACCT", "switch fluorescence ratio": 1.08}, {"sequence": "TAGTTTCGCT", "switch fluorescence ratio": 1.02}, {"sequence": "TAGTTTTCAA", "switch fluorescence ratio": 1.01}, {"sequence": "TATAAACAAG", "switch fluorescence ratio": 0.997}, {"sequence": "TATAAAGAGT", "switch fluorescence ratio": 0.967}, {"sequence": "TATAACATTC", "switch fluorescence ratio": 1.04}, {"sequence": "TATAACGATT", "switch fluorescence ratio": 1.01}, {"sequence": "TATAACGGTG", "switch fluorescence ratio": 1.02}, {"sequence": "TATAAGCGGG", "switch fluorescence ratio": 0.949}, {"sequence": "TATAATAACT", "switch fluorescence ratio": 0.986}, {"sequence": "TATACAAGAA", "switch fluorescence ratio": 1.03}, {"sequence": "TATACAATTA", "switch fluorescence ratio": 1.01}, {"sequence": "TATACCATGC", "switch fluorescence ratio": 1.04}, {"sequence": "TATACCCAGG", "switch fluorescence ratio": 2.98}, {"sequence": "TATACCTGTG", "switch fluorescence ratio": 0.979}, {"sequence": "TATACGCGAT", "switch fluorescence ratio": 2.9}, {"sequence": "TATACGGTTG", "switch fluorescence ratio": 0.997}, {"sequence": "TATACGTGGA", "switch fluorescence ratio": 1.02}, {"sequence": "TATACTATAG", "switch fluorescence ratio": 0.998}, {"sequence": "TATACTCATA", "switch fluorescence ratio": 1.07}, {"sequence": "TATACTGAGA", "switch fluorescence ratio": 1.05}, {"sequence": "TATACTTTGA", "switch fluorescence ratio": 1.01}, {"sequence": "TATAGCAGGC", "switch fluorescence ratio": 1.3}, {"sequence": "TATAGCGGCT", "switch fluorescence ratio": 1.05}, {"sequence": "TATAGGAAAG", "switch fluorescence ratio": 1.01}, {"sequence": "TATAGGGGA", "switch fluorescence ratio": 1.04}, {"sequence": "TATAGTACTA", "switch fluorescence ratio": 0.96}, {"sequence": "TATAGTCCAA", "switch fluorescence ratio": 1.04}, {"sequence": "TATAGTCGG", "switch fluorescence ratio": 0.976}, {"sequence": "TATAGTGTTA", "switch fluorescence ratio": 0.996}, {"sequence": "TATATACCTC", "switch fluorescence ratio": 1.02}, {"sequence": "TATATACGGC", "switch fluorescence ratio": 1.05}, {"sequence": "TATATATACT", "switch fluorescence ratio": 1.04}, {"sequence": "TATATATGAG", "switch fluorescence ratio": 0.975}, {"sequence": "TATATGAGGA", "switch fluorescence ratio": 0.995}, {"sequence": "TATATGATAG", "switch fluorescence ratio": 0.995}, {"sequence": "TATATGGTTT", "switch fluorescence ratio": 1.05}, {"sequence": "TATATGTGAG", "switch fluorescence ratio": 0.992}, {"sequence": "TATATTCTT", "switch fluorescence ratio": 1.06}, {"sequence": "TATCAAATAG", "switch fluorescence ratio": 1.03}, {"sequence": "TATCAATACG", "switch fluorescence ratio": 1.26}, {"sequence": "TATCAGGCGT", "switch fluorescence ratio": 1.05}, {"sequence": "TATCATAAAT", "switch fluorescence ratio": 0.996}, {"sequence": "TATCATAGTT", "switch fluorescence ratio": 0.999}, {"sequence": "TATCATCGG", "switch fluorescence ratio": 1.03}, {"sequence": "TATCATGCAT", "switch fluorescence ratio": 1.44}, {"sequence": "TATCATTCAG", "switch fluorescence ratio": 1.07}, {"sequence": "TATCATTCCA", "switch fluorescence ratio": 1.03}, {"sequence": "TATCCACCGA", "switch fluorescence ratio": 1.39}, {"sequence": "TATCCAGACC", "switch fluorescence ratio": 1}, {"sequence": "TATCCCCAAG", "switch fluorescence ratio": 1.06}, {"sequence": "TATCCGTTGC", "switch fluorescence ratio": 1.44}, {"sequence": "TATCCTATTG", "switch fluorescence ratio": 0.982}, {"sequence": "TATCCTGCCC", "switch fluorescence ratio": 1.04}, {"sequence": "TATCGCCCCG", "switch fluorescence ratio": 1.04}, {"sequence": "TATCGCCCTT", "switch fluorescence ratio": 0.991}, {"sequence": "TATCGCGTCG", "switch fluorescence ratio": 0.959}, {"sequence": "TATCGGATCA", "switch fluorescence ratio": 0.999}, {"sequence": "TATCGGCTAA", "switch fluorescence ratio": 0.994}, {"sequence": "TATCGGGAGA", "switch fluorescence ratio": 0.987}, {"sequence": "TATCGGTC", "switch fluorescence ratio": 1.03}, {"sequence": "TATCGTAA", "switch fluorescence ratio": 1}, {"sequence": "TATCGTCGGT", "switch fluorescence ratio": 0.965}, {"sequence": "TATCGTGTAT", "switch fluorescence ratio": 1.02}, {"sequence": "TATCTCCTGA", "switch fluorescence ratio": 0.981}, {"sequence": "TATCTCCTGT", "switch fluorescence ratio": 1.01}, {"sequence": "TATCTCGCAG", "switch fluorescence ratio": 1.09}, {"sequence": "TATCTGCAGG", "switch fluorescence ratio": 1.05}, {"sequence": "TATCTTGGT", "switch fluorescence ratio": 1.02}, {"sequence": "TATCTTTTCC", "switch fluorescence ratio": 1.02}, {"sequence": "TATGAAACG", "switch fluorescence ratio": 1.03}, {"sequence": "TATGAATCGG", "switch fluorescence ratio": 0.927}, {"sequence": "TATGAATTCC", "switch fluorescence ratio": 1.09}, {"sequence": "TATGAGGCTA", "switch fluorescence ratio": 1}, {"sequence": "TATGAGGTAT", "switch fluorescence ratio": 0.983}, {"sequence": "TATGAGTTAT", "switch fluorescence ratio": 1.01}, {"sequence": "TATGATCAGC", "switch fluorescence ratio": 1.02}, {"sequence": "TATGCCAGAA", "switch fluorescence ratio": 0.962}, {"sequence": "TATGCCCGG", "switch fluorescence ratio": 1.01}, {"sequence": "TATGCCTATT", "switch fluorescence ratio": 0.972}, {"sequence": "TATGCTCTGA", "switch fluorescence ratio": 1.01}, {"sequence": "TATGGACTTG", "switch fluorescence ratio": 1.06}, {"sequence": "TATGGAGAGT", "switch fluorescence ratio": 0.976}, {"sequence": "TATGGAGATG", "switch fluorescence ratio": 1.01}, {"sequence": "TATGGAGGTA", "switch fluorescence ratio": 1.09}, {"sequence": "TATGGAGGTG", "switch fluorescence ratio": 1.05}, {"sequence": "TATGGATCGT", "switch fluorescence ratio": 1.02}, {"sequence": "TATGGGAGAA", "switch fluorescence ratio": 0.976}, {"sequence": "TATGGGATAA", "switch fluorescence ratio": 0.988}, {"sequence": "TATGGGGACG", "switch fluorescence ratio": 0.957}, {"sequence": "TATGGGGTCC", "switch fluorescence ratio": 1.02}, {"sequence": "TATGGTAAA", "switch fluorescence ratio": 0.957}, {"sequence": "TATGGTCTTC", "switch fluorescence ratio": 1.02}, {"sequence": "TATGGTTGTG", "switch fluorescence ratio": 0.974}, {"sequence": "TATGGTTTAT", "switch fluorescence ratio": 0.945}, {"sequence": "TATGTAACGC", "switch fluorescence ratio": 1}, {"sequence": "TATGTAGTG", "switch fluorescence ratio": 0.984}, {"sequence": "TATGTCACC", "switch fluorescence ratio": 1.13}, {"sequence": "TATGTCACTC", "switch fluorescence ratio": 1.07}, {"sequence": "TATGTCAGCC", "switch fluorescence ratio": 1.02}, {"sequence": "TATGTCGTCC", "switch fluorescence ratio": 1.07}, {"sequence": "TATGTGGTTT", "switch fluorescence ratio": 0.979}, {"sequence": "TATGTTAGGT", "switch fluorescence ratio": 0.969}, {"sequence": "TATGTTCGGC", "switch fluorescence ratio": 1.03}, {"sequence": "TATGTTTG", "switch fluorescence ratio": 0.991}, {"sequence": "TATGTTTTC", "switch fluorescence ratio": 0.985}, {"sequence": "TATTAACACC", "switch fluorescence ratio": 1.02}, {"sequence": "TATTAACCAA", "switch fluorescence ratio": 0.979}, {"sequence": "TATTAACTGT", "switch fluorescence ratio": 1.03}, {"sequence": "TATTAAGCCG", "switch fluorescence ratio": 0.986}, {"sequence": "TATTACAAAC", "switch fluorescence ratio": 1.15}, {"sequence": "TATTACACGA", "switch fluorescence ratio": 1.02}, {"sequence": "TATTACGCTA", "switch fluorescence ratio": 1.32}, {"sequence": "TATTAGATTA", "switch fluorescence ratio": 0.959}, {"sequence": "TATTAGCTC", "switch fluorescence ratio": 0.948}, {"sequence": "TATTCAGAC", "switch fluorescence ratio": 0.88}, {"sequence": "TATTCAGTGG", "switch fluorescence ratio": 1.02}, {"sequence": "TATTCCATTG", "switch fluorescence ratio": 0.98}, {"sequence": "TATTCCGAGC", "switch fluorescence ratio": 1.54}, {"sequence": "TATTCGACGA", "switch fluorescence ratio": 1.05}, {"sequence": "TATTCGGCCG", "switch fluorescence ratio": 1.04}, {"sequence": "TATTCGGGA", "switch fluorescence ratio": 1.02}, {"sequence": "TATTCGTGTC", "switch fluorescence ratio": 1.01}, {"sequence": "TATTCTAAGT", "switch fluorescence ratio": 1.01}, {"sequence": "TATTCTACAG", "switch fluorescence ratio": 1.04}, {"sequence": "TATTCTGCTG", "switch fluorescence ratio": 1.04}, {"sequence": "TATTCTGGA", "switch fluorescence ratio": 1.06}, {"sequence": "TATTCTTATC", "switch fluorescence ratio": 0.978}, {"sequence": "TATTCTTTAC", "switch fluorescence ratio": 1.04}, {"sequence": "TATTCTTTTA", "switch fluorescence ratio": 0.995}, {"sequence": "TATTGAAG", "switch fluorescence ratio": 0.985}, {"sequence": "TATTGACATA", "switch fluorescence ratio": 1.06}, {"sequence": "TATTGATACC", "switch fluorescence ratio": 1.03}, {"sequence": "TATTGATGG", "switch fluorescence ratio": 0.988}, {"sequence": "TATTGATTGT", "switch fluorescence ratio": 0.974}]}]}
